According to the RNAGym collection of RNA variant scans (doi:10.1073/pnas.2313332121):
Variants at the background level are over-represented here.

B1: TPR 5TU (parent)
chain: GGAUCUUCUCGAUCUAACAAAAAAGACAAAUCUGCCACAAAGCUUGAGAGCAUCUUCGGAUGCAGAGGCGGCAGCCUUCGGUGGCGCGAUAGCGCCAACGUUCUCAACUAUGACACGCAAAACGCGUGCUCCGUUGAAUGGAGUUUAUCAUG

Variants of: B1
Assay: polymerase ribozyme fitness, log enrichment relative to wild type (log ratio); higher = more active; in vitro selection for triplet polymerase activity
How it was run: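 Streptavidin-bead capture of gel-excised extended constructs, followed by RT-PCR, closed a single triplicate in vitro selection round. That round began by annealing PCR-built, transcribed mutant libraries of each subunit of a heterodimeric triplet polymerase ribozyme with a biotinylated primer, the partner subunit and triplets, then incubating them frozen at −7 °C. After Illumina sequencing of inputs and outputs, genotypes needed ≥10 input reads and ≥1 read per output. Fitness is the base-2 logarithm of genotype enrichment over wild-type enrichment, using inverse-variance-weighted replicate averages.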

Polymerase ribozyme fitness (log ratio), ≤ -4.2:
GGAUCUUCUCGAUCUAACAAAAAAGACAAAUCUGCCACAAAGCUUCAGAGCCUCUUCGGAUGCCGAGGCGGCAGCCUUCGGUGGCGCGAUAGGGCCAACGUUCUCAACUAUGACACGCAAAACGCGUGCUCCGUUGAAUGGAGUUUAUCAUG [G46C A52C A64C C93G]
GGAUCUUCUCGAUCUAACAAAAAAGACAAAUCUGCCACAAAGCUUCAGAGCAUCUUCGGGUGCAGAGGCGGCAGCCUUCGGUGGCGCGAUUGCGCCAACGGUCUCAACUAUGACACCCAAAACGCGUGCUCCGUUGAAUGGAGUACAUCAUG [G46C A60G A91U U101G G117C U145A U146C]
GGAUCUUCUCGAUCUAACAAAAAAGACAAAUCUGCCACAAAGCUUCAGAGCAUCUUCGGAUGCAGGGGCGGUAGCCAUCGGUGGCGCGAUAACGCCAACAUUCUCAACUAUGACUUGCAGUACGCGUGCUCCGUUGAAUGGAGUUUAUCAUG [G46C A66G C72U U77A G92A G100A A115U C116U A120G A121U]
GGAUCUUCUCGAUCUAACAAAAAAGACAAAUCUGCCACAAAGCUUCAGAGCAUCUUUGGAUGCAGAGGCGGCGGCCUUCGGUGGGGCGAUAGCACCAACGUUCUCAACUAUGACACGCAAAACGCGUGCUCCGUUGAAUGGAGUUUAUCAUU [G46C C57U A73G C85G G94A G152U]
GGAUCUUCUCGAUCUAACAAAAAAGACAAAUCUGCCACAAAGCUUCAGAGCAUCUUCGGAUGCAGAGGCGGCAGCAUUCGGUGGGGCGAGAGCGCCAACGUUCUCAACUAUGACACGCAAUACGCGUGCUCCGUUGAAUGGAGUUUAUCAUG [G46C C76A C85G U90G A121U]
GGAUCUUCUCGAUCUAACAAAAAAGACAAAUCUGCCACAAAGCUUCAGAGCAUCUUCGGAUGCAGAGGCGGCAGCCUUGGGUGGCGCGAUAGCGCCAACGUUCUCAACUAUGACACGCAAAACGCGUGCUCCGUUGAAUGGAGUUUAUCAUG [G46C C79G]
GGAUCUUCUCGAUCUAACAAAAAAGACAAAUCUGCCACAAAGCUUCAGAGCAUCUUCGGAUGCAGAGGCGGCAGCCUUCGGUGGCGAGAUAGCGCCAACGUUCUCAACUAUGACAGGCUAAACACGUGCUCCGUUGAAUGGAGUUUAUCAUG [G46C C87A C116G A119U G124A]
GGAUCUUCUCGAUCUAACAAAAAAGACAAAUCUGCCACAAAGCUUCAGAGCAUCUUCACAUGCAGAGGCGGCAGCCUUCGGUGGCGCGAUAGCGUCAAUGUUCUCAUCUAUGACACGCAAAACGCGUGCUCUGUUGAAUGGAGUAUAUCAUG [G46C G58A G59C C95U C99U A107U C132U U145A]
GGAUCUUCUCGAUCUAACAAAAAAGACAAAUCUGCCACAAAGCUUCAGAGCAUCUUCUGAUGCAGAGGCGGCAGCCUUCGGUGGCGCGAUUGCGCCAACGUUCUCAACUAUGACACGCAAAACGCGUGCCCCGUUGAAUGGAGUUAAUCAUG [G46C G58U A91U U130C U146A]
GGAUCUUCUCGAUCUAACAAAAAAGACAAAUCUGCCACAAAGCUUCAGAGCAUCUUCGCAUGCAGAGGCGGCAGCCUUCGGUGGCGCGAUGGCGCCAACGUUCGCAACCAUGACACGUAAAACGCGUGCUCCGUUGAAUGAAGUUUAUCAUG [G46C G59C A91G U104G U109C C118U G141A]
GGAUCUUCUCGAUCUAACAAAAAAGACAAAUCUGCCACAAAGCUUCAGAGCAUCUUCGGAUGCAGAGGCGGCAGCCUUCGGUGCCGCGUUAGCGCCAACGUUCUCAACUAUGACACGCAAAACGCGUGCUCCGUUGAAUGGAGUUUAUCAUG [G46C G84C A89U]
GGAUCUUCUCGAUCUAACAAAAAAGACAAAUCUGCCACAAAGCUUCAGAGCAUCAUAGGAUGUAGAGGCGGCGGCCUUCGGUGUCGCGAUAGGGCCAACGUUCUCAACUAUGAAACGCAAAAGGCGUGCUCCGUUGAAUGGAGUUUAUCAUG [G46C U55A C57A C63U A73G G84U C93G C114A C123G]
GGAUCUUCUCGAUCUAACAAAAAAGACAAAUCUGCCACAAAGCUUUGGAGCAUCUUCGGAUGCAGAGGCGGCAGCCUUCGGUGGCGCGUUAGCGCCAACGGUCUCAACUAUGACACGCAAAACGCGUGCUCCGUUGAAUGGAGUUUAUCAUG [G46U A47G A89U U101G]
GGAUCUUCUCGAUCUAACAAAAAAGACAAAUCUGCCACAAAGCUUUAGAGCCUCUUCGGAUGCAGAGGCGACAGCCUUCGGUGGAGCGAUAGCGCGAACGUUCUCAACUAUGACACGCAAAACGCGUGCUCCGUUGAAUGGAGUUUAUUAUG [G46U A52C G71A C85A C96G C149U]
GGAUCUUCUCGAUCUAACAAAAAAGACAAAUCUGCCACAAAGCUUUAGAGCAUCUUCGGCUGCAGAGGCGGCAGCCUUCGGUGGCGCGAUAGAGCCUACGUUCUCAACUAUGACACGCAAAACGCGUGCUCCGUUGCACGGAGAUUAUCAGG [G46U A60C C93A A97U A137C U139C U144A U151G]
GGAUCUUCUCGAUCUAACAAAAAAGACAAAUCUGCCACAAAGCUUUAGAGGAUCUUCGGAUGCAGAGGCGGCAGCCUUCGGUGGCGCGAUAGUGCCAACGUUCUCAACUAUGACACGCAAAACGCGUGCUCCGUUGAAUGGAGUUUAUCAUG [G46U C51G C93U]
GGAUCUUCUCGAUCUAACAAAAAAGACAAAUCUGCCACAAAGCUUUAGAGCAUAUUCGGAUGCAGAGGCGGCAGCCUUCGGUGGCGCGAUAGGGCCAACGUUCUCAACUAUGACACGCGAAACGCGUGCUCCGUAGAAUGGAGUUUAUCAUG [G46U C54A C93G A119G U135A]
GGAUCUUCUCGAUCUAACAAAAAAGACAAAUCUGCCACAAAGCUUUAGAGCAUCUUCGGAUGUAGGGGCGGCAGCCUUGGGUUGCGCGAUAGCUCCAACGUUCUGAACUAUGACACGCAAAACGCGUGCUCCGUUGAAUGGAGUUGAUCAUG [G46U C63U A66G C79G G83U G94U C105G U146G]
GGAUCUUCUCGAUCUAACAAAAAAGACAAAUCUGCCACAAAGCUUUAGAGCAUCUUCGGAUGCAGAGGCGGCAGGCUUCGGUGGCGCGCUAGCGCCAAUGUUCUCAACUAUGUCACGCAAAACGCGUGCUCCAUUGAAUUAAGUUUAUCAUG [G46U C75G A89C C99U A113U G133A G140U G141A]
GGAUCUUCUCGAUCUAACAAAAAAGACAAAUCUGCCACAAAGCUUUAGAGCAUCUUCGGAUGCAGAUGUGGCAGCCUUCGGAGGCGCGAUAGCGCCAACGUUCUCAACUAUGACACGCAAAACGCGUGCUCCGUUUACUGGAGAUUAUCAUG [G46U G67U C69U U82A G136U A138C U144A]
GGAUCUUCUCGAUCUAACAAAAAAGACAAAUCUGCCACAAAGCUUUAGAGCAUCUUCGGAUGCAGAGGCGGCAGCCUUCGGUAGCGCGAUAGCGCCAACGUUCUCAACUAUGACACGCAAAACGCGUACUCCGUUGAAUGGAGUUUAUCAUG [G46U G83A G128A]
GGAUCUUCUCGAUCUAACAAAAAAGACAAAUCUGCCACAAAGCUUUAGAGCAUCGUCGGAUGCAGAGGCGGCAGCCUUCGGUGGCGCGUUAGCGACAACGUUGUCAACUAUGAAACGCAAAACGCGUGCUCCGUUGACUGGAGUUUAUCAUG [G46U U55G A89U C95A C103G C114A A138C]
GGAUCUUCUCGAUCUAACAAAAAAGACAAAUCUGCCACAAAGCUUUAGAGCAUCUUCGGAUGCAGAGGCGGCAGCCUUCGGGGGCUCGAUAGCGCGAACGUUCUCAACUAUGACACGCAAAACGCGUGCUCCGUUGAAGGGAGGUUAUCAUG [G46U U82G G86U C96G U139G U144G]
GGAUCUUCUCGAUCUAACAAAAAAGACAAAUCUGCCACAAAGCUUGCGUGCAUCUUCGGCUGCAGAGGCGGCAGUCUUCGGUGGGGCGAUAGCGCCAACGUUCUCAACUAUGACACGCAAAACGCUUGCUCCGUUGAAUGGAGUUUAUCAUG [A47C A49U A60C C75U C85G G126U]
GGAUCUUCUCGAUCUAACAAAAAAGACAAAUCUGCCACAAAGCUUGCGUGCAACUACGGAUGCAGAGGCGGUAGCCUUCGGUGGCGCGAUAGCGCCAACGUUCUCAAUUAUGACACGCAAAACGCGUGCUCUGUUGAAUGGAGUUUAUCAUG [A47C A49U U53A U56A C72U C108U C132U]
GGAUCUUCUCGAUCUAACAAAAAAGACAAAUCUGCCACAAAGCUUGCGAGCCUCUUCGGAUGCAGAGGCGGCAGCCUUAGGUGGGGCGAUAGCGCCAACGUUCUCAACUAUGACACGCAAAACGCGUGCUCCGUUGAAUGGAGUUUAUCAUG [A47C A52C C79A C85G]
GGAUCUUCUCGAUCUAACAAAAAAGACAAAUCUGCCACAAAGCUUGCGAGCAUCUUCGGGUGCUGAGGCGGCAGCCUUCGGUGGCGCCAUCGCGCCAACGUUCUCAACUAUGACACGCAAAACGCGUGCUCCGUUGAAUGGAGUUUAUCAUG [A47C A60G A64U G88C A91C]
GGAUCUUCUCGAUCUAACAAAAAAGACAAAUCUGCCACAAAGCUUGCGAGCAUCUUCGGUUGCAGAGGCGGCAGUCUUCGGUGGCGCGAUGGCGCCAACGUUCUCAGCUAUGACACGAAAAACGCGUGCUCCGUUGAAUGGAGUUUAUCAUG [A47C A60U C75U A91G A107G C118A]
GGAUCUUCUCGAUCUAACAAAAAAGACAAAUCUGCCACAAAGCUUGCGAGCAUCUUCGGAUGCAGGGGCGGCAGCCUUCGGUGGCGCGAUAGCGCCAACGUUCUCAACUAUGUCACGCAAAACGCGUGCGCAGUUGAAUGGAGUUUAUCAUG [A47C A66G A113U U130G C132A]
GGAUCUUCUCGAUCUAACAAAAAAGACAAAUCUGCCACAAAGCUUGCGAGCAUCUUCGGAUGCAGUGGCGGCAGCUUUCGGUGGAGCGAUAGCGCCAAAGUUCUCAACUAUGACACGCAAAACGCGUGCUCCGUUGAAUGGAGUUUAUCAUG [A47C A66U C76U C85A C99A]
GGAUCUUCUCGAUCUAACAAAAAAGACAAAUCUGCCACAAAGCUUGCGAGCAUAUUCGGAUGCAGAGGCGGCAGCCUUCGGUAGCGCGAUAGCGCCAACGUUCUCAACUAUGACACGGAAAACGCGUGCUCCGUUGAAUGGCGUUUAUCAUG [A47C C54A G83A C118G A142C]
GGAUCUUCUCGAUCUAACAAAAAAGACAAAUCUGCCACAAAGCUUGCGAGCAUCUUAGGAUGCAGCGGCGGCAGCCUUCGGUGGCGAGUUAGCGCCAACGUUCUCAACUAUGACACGCAUUAAGUGUGCUCCGUUGAAUGGAGAUUAUCAUG [A47C C57A A66C C87A A89U A120U A121U C123A C125U U144A]
GGAUCUUCUCGAUCUAACAAAAAAGACAAAUCUGCCACAAAGCUUGCGAGCAUCUUCGGAUGCAGAGGCGGCAGACUUCGGUGACGCGAUAGCGCCAACGUUCUCAACUAUGACACGCAAAAAGCGUGCUCCGUUGAAUGGAGUUUAUCAUG [A47C C75A G84A C123A]
GGAUCUUCUCGAUCUAACAAAAAAGACAAAUCUGCCACAAAGCUUGCGAGCAUCUUCGGAUGCAGAGGCGGCAGUCUUCGGUGGAGCGAUAGAGCCAUCGUUCUCAACUAUGACACGCAAAACGCGUGCUCCGUUGAAUGGAGUUUAUCAUG [A47C C75U C85A C93A A98U]
GGAUCUUCUCGAUCUAACAAAAAAGACAAAUCUGCCACAAAGCUUGCGAGCAUCUUCGGAUGCAGAGGCGGCAGCCUUCGGUGGAGCGAUAGGGCCUACGUUCUCAGCUAUGACACGCAAUACGCGUGCUCCGUUGAAUGGAGUUUAUCAUG [A47C C85A C93G A97U A107G A121U]
GGAUCUUCUCGAUCUAACAAAAAAGACAAAUCUGCCACAAAGCUUGCGAGCAUCUUCGGAUGCAGAGGCGGCAGCCUUCGGUGGAGCGAUAGCGCGAACGUUCUCAACUAUGACACGCAAAACGCGUGCUCCGUUGAAUGGGGUUUAUCAUA [A47C C85A C96G A142G G152A]
GGAUCUUCUCGAUCUAACAAAAAAGACAAAUCUGCCACAAAGCUUGCGAGCAUCUUCGGAUGCAGAGGCGGCAGCCUUCGGUGGGGCGAUAGCGUCAACGUUCUCAACUAUGACACGCAAAACGCGUGCUCCGUUGAACGGAGUUUAGCAUG [A47C C85G C95U U139C U148G]
GGAUCUUCUCGAUCUAACAAAAAAGACAAAUCUGCCACAAAGCUUGCGAGCAUCUUCGGAUGCAGAGGCGGCAGCCUUCGGUGGCGAGAUAGCGCCAACGUUCUCUACUAUGAAACGCAAAACGCGUGCUCCGUUGAAUGGAGUUUAUCAUG [A47C C87A A106U C114A]
